According to the RNAGym collection of RNA variant scans (doi:10.1073/pnas.2313332121):
This sample is rich in variants without activity.

B1: TPR 5TU (parent)
chain: GGAUCUUCUCGAUCUAACAAAAAAGACAAAUCUGCCACAAAGCUUGAGAGCAUCUUCGGAUGCAGAGGCGGCAGCCUUCGGUGGCGCGAUAGCGCCAACGUUCUCAACUAUGACACGCAAAACGCGUGCUCCGUUGAAUGGAGUUUAUCAUG

Variants of: B1
Experiment: polymerase ribozyme fitness, log enrichment relative to wild type (log ratio); higher = more active; in vitro selection for triplet polymerase activity
Procedure, shortened: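 Fitness compares each genotype's enrichment to that of the wild type on a logarithmic scale, averaging replicates with inverse-variance weights. The logarithm is base 2. Enrichment came from Illumina sequencing of input and output libraries after one triplicate round of in vitro selection, which included frozen incubation at −7 °C, of PCR-built, transcribed mutant libraries of each subunit of a heterodimeric triplet polymerase ribozyme. Only genotypes with ≥10 input reads and ≥1 read per output were kept.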

Row | Variant | polymerase ribozyme fitness (log ratio)
1 | U45C A52G C57A G92C | -2.64
2 | U44A G58U G70C C76A A91G A115C | ≤ -4.2
3 | U44A A52G C85U C96U | ≤ -4.2
4 | C43U G65A G81U A91C G94A C118U U146A | ≤ -4.2
5 | U44G G65A U77C C87U C105G C118U C129U G143U U148G | ≤ -4.2
6 | U45C G46A U61G G62C C76A | ≤ -4.2
7 | U44G U55G G74U G86U | ≤ -4.2
8 | U45C G86A U109G U134G | ≤ -4.2
9 | U44G A49U G84A U90G C131U U135G G136A | ≤ -4.2
10 | U45G A52C G65C A91U U102G C103G A106G A115C | ≤ -4.2
11 | U44A A66G U77C G84A A107U C118U U134A | ≤ -4.2
12 | U44A U55A C69G G86U G141A | -4.2
13 | U45A C57U G86A U90G | ≤ -4.2
14 | U45A G62C A107U | ≤ -4.2
15 | U44G C51A A73C C95U U101G | ≤ -4.2
16 | U44A G86U | ≤ -4.2
17 | U44A C93U C99A U111G A138G G152U | -3.36
18 | U44A U53A G86U C132U U135G | ≤ -4.2
19 | U44A G81A C95G C96U A110U A138C | ≤ -4.2
20 | U44G G136A | -3.71
21 | U45A A73C G92A C95G | ≤ -4.2
22 | U45A G58A C69G C76U C99A A147G | ≤ -4.2
23 | C43U U45C C72U U77G G88U G92U C99G | ≤ -4.2
24 | U45A G88U A89C U134G | ≤ -4.2

Row | Variant | polymerase ribozyme fitness (log ratio)
25 | U44A C87A | ≤ -4.2
26 | C43U G50U U55A C76U G136A G152U | ≤ -4.2
27 | U45C A91U C96A A98U U101G | ≤ -4.2
28 | U45A U56A G88A U101A C149U | ≤ -4.2
29 | U45A C69U C85U U90C A119C | ≤ -4.2
30 | C43U G86U C125A | ≤ -4.2
31 | U44G A73U C85U G124U U134C U135G C149G | ≤ -4.2
32 | U44A A49G | ≤ -4.2
33 | U44A A49C | -4.06
34 | U44C U77G C85G | ≤ -4.2
35 | U44A C75U C76G U77G G92U A115U G140A G152C | ≤ -4.2
36 | U44A U139A C149A A150C | ≤ -4.2
37 | U45A A52G C116G | -3.56
38 | U45A G126A | -2.15
39 | U44G A47G C69U U82G G92U | ≤ -4.2
40 | U44G G59A A60C G83A C95G C103G | ≤ -4.2
41 | U45A C85A A121G G140A | ≤ -4.2
42 | U44A G88U C93G | ≤ -4.2
43 | U44C C99G | ≤ -4.2
44 | U44C A73U G92A C114U | ≤ -4.2
45 | U44A C75U G92A C123U U145C | ≤ -4.2
46 | U44A A49C U55A C96U A106G A122G G141U | ≤ -4.2
47 | U44A G92A G141U | ≤ -4.2
48 | U45G C54U G94A C96G C108U A122U G141A | ≤ -4.2

Row | Variant | polymerase ribozyme fitness (log ratio)
49 | U45C U77G C79G | ≤ -4.2
50 | U44G U45G U61C C99G | ≤ -4.2
51 | C43U U61G A73G G80C G81A C95G U104C A106U A107G | ≤ -4.2
52 | U45A C75U U90A C93U A119U G141C | ≤ -4.2
53 | U45A C85U C118G A138U | -4.16
54 | U44A A66U C105G C118A A137U | ≤ -4.2
55 | U44A A47G U55A U90G C96U A115G | ≤ -4.2
56 | U45A C57A G133C U139A A150C | ≤ -4.2
57 | U44A G88A A120G | ≤ -4.2
58 | U45C G62C C87G U145C | ≤ -4.2
59 | U44A C105G | ≤ -4.2
60 | C43U G84A U104G C132G U135A A137G G143A G152C | ≤ -4.2
61 | U44A C76A U82G G100A C103G A137G | ≤ -4.2
62 | C43U G62A A66C G83C U90A | ≤ -4.2
63 | U44A C75U U82G U135G | ≤ -4.2
64 | U44A U45A C54G G86A A91U G100C A110U G117U | ≤ -4.2
65 | U44A C125G | ≤ -4.2
66 | U45A G68A C87G G112C | ≤ -4.2
67 | U45A A66U | ≤ -4.2
68 | C43U C99G G126A G133U | ≤ -4.2
69 | U45A A49G G84U A115G A120G | ≤ -4.2
70 | U44A C54G C57U G86C | ≤ -4.2
71 | U44A G46C C57A U61C C69A A89G C123U | ≤ -4.2
72 | U44C G68C G83C C108G | ≤ -4.2

Row | Variant | polymerase ribozyme fitness (log ratio)
73 | U44A A47C U55A C76U C87A A91G A107U G126A U145A | ≤ -4.2
74 | U44A G58C G92C G141U C149A | ≤ -4.2
75 | U44G C54G A64U U135A A150U | ≤ -4.2
76 | U44A U53G G67A U78A G81C G88A G92C A138U | ≤ -4.2
77 | U45G C51U C96G A107C A113G G126C | ≤ -4.2
78 | U44A U61A C93G A113U | ≤ -4.2
79 | U44C U77A G84A G136U U144C G152U | ≤ -4.2
80 | U44G G70C G83A C116A G152A | ≤ -4.2
81 | U44G U56A G84U | ≤ -4.2
82 | U44A C54A U77A G92C C118A A120G G136C G140A | ≤ -4.2
83 | U45A A47C U61A G92A C114A C123G U146G | ≤ -4.2
84 | U45A C51U C54U G92U | -3.95
85 | C43U G62A A119U U134A | ≤ -4.2
86 | U44A A64C C85U | ≤ -4.2
87 | C43U G86U A110G | ≤ -4.2
88 | U45G A64G G81U A91C G92A | ≤ -4.2
89 | U45A A73G C85G A89G C108A | ≤ -4.2
90 | U45A C57G C75U | ≤ -4.2
91 | U45A G68C C85U A97U G140A A142C | ≤ -4.2
92 | U45A U61G U82C G83C A97C G100A C103A | ≤ -4.2
93 | U44A C63A G68U G86C A121U | ≤ -4.2
94 | U44A U134A | ≤ -4.2
95 | U44A C54A C79U C93U | ≤ -4.2
96 | U45A G46C G50C G67C C95G U101A | ≤ -4.2

Row | Variant | polymerase ribozyme fitness (log ratio)
97 | U45A A91C C95G A142U | ≤ -4.2
98 | U45A G48C A106G | ≤ -4.2
99 | U44A U55A C125G | ≤ -4.2
100 | U45A U53A G83A | ≤ -4.2
101 | U45A G46C C57U G81U C93U | ≤ -4.2
102 | C43U U134A | ≤ -4.2
103 | U45A A106G | -1.7
104 | C43U G50A A73G C76A C95A A142C | ≤ -4.2
105 | U45G C54U U55G C95A U111C G124U A137C U144G | ≤ -4.2
106 | C43U G88C A115G | ≤ -4.2
107 | C43U G59A | ≤ -4.2
108 | U45A C69A G88C A97C C125G | ≤ -4.2
109 | U44G A52G U53A C75A | ≤ -4.2
110 | U44A A66C G81A C96G C108A G117U U146G | ≤ -4.2
111 | U45A A73G A110U | ≤ -4.2
112 | U44A G62A G84A U134A | ≤ -4.2
113 | C43U C132U | ≤ -4.2
114 | U45A U53A G58A G81A C96G | ≤ -4.2
115 | U45G A47C A73U G92A C149G | ≤ -4.2
116 | U44C G50U U101G C131U U139C C149U | ≤ -4.2
117 | U45A C54G U56A U82G A91C | ≤ -4.2
118 | U44A U55A C132U | ≤ -4.2
119 | U44A U45A G46C G58C G83C | ≤ -4.2
120 | U44A C87A G126U | ≤ -4.2

Row | Variant | polymerase ribozyme fitness (log ratio)
121 | U45G A52U | -3.15
122 | U45A A66C C76A G88C G92C A121G G128C | ≤ -4.2
123 | U45G A66C A122U | ≤ -4.2
124 | U45C A64G C75G A91C U144G | ≤ -4.2
125 | U44A A52G G94U G117U A150G | ≤ -4.2
126 | U45A G65U | ≤ -4.2
127 | C43U U45A C63U G81A C95G U111A | ≤ -4.2
128 | U45A C93G G100A | ≤ -4.2
129 | U44A U45G C76A C93U A121U U127C U148C | ≤ -4.2
130 | U44G G71A U77C C95U C116G | ≤ -4.2
131 | U44G A47G G62A G68C C69U | ≤ -4.2
132 | U44G U61A C87U C93G A110U G136U | ≤ -4.2
133 | U44G G50C G84A A113U U135A G136U | ≤ -4.2
134 | U44A G48C G81A A89G C108G C118G C125U | ≤ -4.2
135 | U44A C72G U77G U90G G141U | ≤ -4.2
136 | U45A A64C U82C C85U | ≤ -4.2
137 | U44A U53C C85U C108G A113U U145C | ≤ -4.2
138 | U44A A49U C72G C79G G92U A150G | ≤ -4.2
139 | U45A G46C C76A C96U C105U | ≤ -4.2
140 | U44A C93A U101C A113U G117A U134A | ≤ -4.2
141 | U44G G48U G86A G100C C105A G126A U134C | ≤ -4.2
142 | U44G A64C G65U C69U G86A | ≤ -4.2
143 | U44A G50A U77A U78A C93G A115C G133A G141A | -4.14
144 | U44C U55A G59A G83A C87U G124C | ≤ -4.2

Row | Variant | polymerase ribozyme fitness (log ratio)
145 | U44C C54A C114U | ≤ -4.2
146 | U44A C79U C87A | ≤ -4.2
147 | U45A C79G G84C C93G U102G | ≤ -4.2
148 | U45G A110U C114U C125U G140A | ≤ -4.2
149 | C43U U61A G80A G94U A106C A122U | ≤ -4.2
150 | U45A G50A U55G C87G G94C | ≤ -4.2
151 | U44G C108U A120U | ≤ -4.2
152 | C43U G59C U77A U111C | ≤ -4.2
153 | U45A A52G G67A G83U U102A U144A | ≤ -4.2
154 | U45A G88C | ≤ -4.2
155 | U44A G50U U56A G70A C108A | ≤ -4.2
156 | U45A C51U G65U A66G G88U A121G U135C | ≤ -4.2
157 | U44G A60U A115C | ≤ -4.2
158 | C43U G50C U61A C63A A73G C85G U90C A137G G143A U144G | ≤ -4.2
159 | U44C G92C A138G G140A | ≤ -4.2
160 | U44A C69A A138U G140C | ≤ -4.2
161 | U45A A52G C87G U109A | ≤ -4.2
162 | U44C C87U U104C A122C | ≤ -4.2
163 | U44G U77G U90A | ≤ -4.2
164 | U44G A119U U145G | ≤ -4.2
165 | U44G U135A | -3.83
166 | U44A U56G G83U A89U C95A A98C C103G A107G | ≤ -4.2
167 | U45A G59C C85A A89G U111G | ≤ -4.2
